Drawing on PMC12537989, this text covers binding for one molecule.

Results are given in words; binding and its absence hold for the method and conditions named. Binding seen in cells or lysates may run through a third protein. Some entries that bind do so weakly or less than the wild type.

Common to all, as to assay: co-IP; HEK293T cells co-transfected with SLC9A9 and the partner plasmid, collected 36 h after transfection; lysed in 50 mM Tris-HCl pH 7.4, 1 mM EDTA, 150 mM NaCl, 1% Triton; protein A/G Plus-Agarose and 3 ug antibody, 12 h at 4 C, 5 washes; immunoblot; some samples with amiloride treatment (interaction inhibited)
(In general: A western blot detects proteins with antibodies after separation by electrophoresis.)

The target of one test is T1, Vps11 (mouse) (UniProt Q91W86).
T1 sequence: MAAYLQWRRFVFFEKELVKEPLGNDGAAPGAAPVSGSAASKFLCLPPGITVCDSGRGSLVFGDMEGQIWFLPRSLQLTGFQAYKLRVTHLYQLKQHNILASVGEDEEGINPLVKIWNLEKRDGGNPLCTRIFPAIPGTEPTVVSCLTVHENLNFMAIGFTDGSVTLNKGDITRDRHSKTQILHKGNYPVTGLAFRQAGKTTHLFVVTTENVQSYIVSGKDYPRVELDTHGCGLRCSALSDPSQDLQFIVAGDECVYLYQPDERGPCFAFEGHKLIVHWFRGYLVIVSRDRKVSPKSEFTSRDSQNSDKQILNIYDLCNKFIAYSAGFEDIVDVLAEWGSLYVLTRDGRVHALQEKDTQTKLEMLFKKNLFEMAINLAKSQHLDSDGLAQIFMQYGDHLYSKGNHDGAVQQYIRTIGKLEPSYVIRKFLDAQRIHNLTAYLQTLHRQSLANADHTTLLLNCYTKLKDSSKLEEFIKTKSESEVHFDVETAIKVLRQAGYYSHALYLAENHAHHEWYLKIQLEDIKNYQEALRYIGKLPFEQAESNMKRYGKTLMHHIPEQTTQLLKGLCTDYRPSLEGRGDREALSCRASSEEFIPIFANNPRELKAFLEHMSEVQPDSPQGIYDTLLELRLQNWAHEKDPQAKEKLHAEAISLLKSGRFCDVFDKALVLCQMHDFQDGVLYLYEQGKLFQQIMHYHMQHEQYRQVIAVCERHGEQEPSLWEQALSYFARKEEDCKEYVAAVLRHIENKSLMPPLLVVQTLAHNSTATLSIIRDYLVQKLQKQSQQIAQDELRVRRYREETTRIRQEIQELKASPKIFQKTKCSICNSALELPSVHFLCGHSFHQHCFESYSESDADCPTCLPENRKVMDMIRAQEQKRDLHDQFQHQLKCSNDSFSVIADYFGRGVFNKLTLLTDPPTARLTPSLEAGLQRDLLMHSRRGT

In a further test the target is T2, Vamp4 (mouse) (UniProt O70480).
T2 sequence: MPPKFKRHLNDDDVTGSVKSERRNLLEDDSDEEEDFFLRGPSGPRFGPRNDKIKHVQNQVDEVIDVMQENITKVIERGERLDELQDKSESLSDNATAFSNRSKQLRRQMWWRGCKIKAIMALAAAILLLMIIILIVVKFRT

The next test addresses T3, Vamp8 (mouse) (UniProt O70404).
T3 sequence: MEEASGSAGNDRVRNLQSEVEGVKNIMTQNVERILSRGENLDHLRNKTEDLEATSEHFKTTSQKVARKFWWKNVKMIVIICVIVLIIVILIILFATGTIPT

The target in the next test is T4, Snap47 (mouse) (UniProt Q8R570).
T4 sequence: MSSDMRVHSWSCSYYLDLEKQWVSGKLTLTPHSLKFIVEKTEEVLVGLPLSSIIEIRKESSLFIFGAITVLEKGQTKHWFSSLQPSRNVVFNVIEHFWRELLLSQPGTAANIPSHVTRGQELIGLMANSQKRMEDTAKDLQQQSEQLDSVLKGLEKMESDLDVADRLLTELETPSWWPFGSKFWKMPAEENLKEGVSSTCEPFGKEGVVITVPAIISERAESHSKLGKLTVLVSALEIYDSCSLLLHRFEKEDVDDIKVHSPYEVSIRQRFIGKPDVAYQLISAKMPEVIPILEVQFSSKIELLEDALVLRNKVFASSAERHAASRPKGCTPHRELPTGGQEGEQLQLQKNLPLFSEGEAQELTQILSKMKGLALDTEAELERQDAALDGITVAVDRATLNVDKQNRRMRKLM

B1: Endosomal solute carrier family 9 member A9 (SLC9A9) (protein, UniProt Q8BZ00 1-644)
chain: MAGQLRFTSGKDEDHFQHQGAVELLAFNFLLILTILTIWLFKNHRFRFLHETGGAMVYGLIMGLILRYATAPTDIDSGTVYNCGNLFFSPSTLLVNITDQVYEYKYQREINQHNISPHQGNAILEKMTFDPEIFFNVLLPPIIFHAGYSLKKRHFFQNLGSILTYAFLGTAISCVVIGLIMYGFVKAMVHAGQLKSGDFHFTDCLFFGSLMSATDPVTVLAIFHELHVDPDLYTLLFGESVLNDAVAIVLTYSISIYSPKENPNAFDTAAFFQSVGNFLGIFAGSFAMGSAYAVVTALLTKFTKLREFPMLETGLFFLLSWSAFLSAEAAGLTGIVAVLFCGVTQAHYTYNNLSSDSKLRTKQLFEFMNFLAENVIFCYMGLALFTFQNHIFNALFILGAFLAIFVARACNIYPLSFLLNLGRKQKIPWNFQHMMMFSGLRGAIAFALAIRNTESQPKQMMFTTTLLLVFFTVWVFGGGTTPMLTWLQIRVGVDLDESLKEEPSSQQEANKLDKNMTKTESAQLFRMWYGFDHKYLKPILTHSGPPLTTTLPAWCGPVSRLLTSPQAYGEQLKEDDVECIVNQDELAMNYQEQSPSPSSPTTKLALDQKSSGQTPGKENIYEGDLGLGGYDLKLEQTRGQPQMD
Take B1: the binding result with Vps11 (mouse) was “binds”; with Vamp4 (mouse) it was “no binding”; with Vamp8 (mouse) it was “no binding”; in the test with Snap47 (mouse), “binds”.
